# Test results from PMC4336329 (PLoS ONE, 2015).
# The campaign covered roughly 310,000 compounds. About 2,200 (0.71%) showed an effect of 50% or more. The effect is printed as a negative number. The list shows a part of the results.
# Target: human ether-à-go-go-related gene (hERG) potassium channel (human, UniProt Q12809)
# Test: primary screen, population patch clamp on CHO cells stably expressing hERG
# human ether-à-go-go-related gene (hERG) potassium channel, sequence (Q12809 whole entry, looked up): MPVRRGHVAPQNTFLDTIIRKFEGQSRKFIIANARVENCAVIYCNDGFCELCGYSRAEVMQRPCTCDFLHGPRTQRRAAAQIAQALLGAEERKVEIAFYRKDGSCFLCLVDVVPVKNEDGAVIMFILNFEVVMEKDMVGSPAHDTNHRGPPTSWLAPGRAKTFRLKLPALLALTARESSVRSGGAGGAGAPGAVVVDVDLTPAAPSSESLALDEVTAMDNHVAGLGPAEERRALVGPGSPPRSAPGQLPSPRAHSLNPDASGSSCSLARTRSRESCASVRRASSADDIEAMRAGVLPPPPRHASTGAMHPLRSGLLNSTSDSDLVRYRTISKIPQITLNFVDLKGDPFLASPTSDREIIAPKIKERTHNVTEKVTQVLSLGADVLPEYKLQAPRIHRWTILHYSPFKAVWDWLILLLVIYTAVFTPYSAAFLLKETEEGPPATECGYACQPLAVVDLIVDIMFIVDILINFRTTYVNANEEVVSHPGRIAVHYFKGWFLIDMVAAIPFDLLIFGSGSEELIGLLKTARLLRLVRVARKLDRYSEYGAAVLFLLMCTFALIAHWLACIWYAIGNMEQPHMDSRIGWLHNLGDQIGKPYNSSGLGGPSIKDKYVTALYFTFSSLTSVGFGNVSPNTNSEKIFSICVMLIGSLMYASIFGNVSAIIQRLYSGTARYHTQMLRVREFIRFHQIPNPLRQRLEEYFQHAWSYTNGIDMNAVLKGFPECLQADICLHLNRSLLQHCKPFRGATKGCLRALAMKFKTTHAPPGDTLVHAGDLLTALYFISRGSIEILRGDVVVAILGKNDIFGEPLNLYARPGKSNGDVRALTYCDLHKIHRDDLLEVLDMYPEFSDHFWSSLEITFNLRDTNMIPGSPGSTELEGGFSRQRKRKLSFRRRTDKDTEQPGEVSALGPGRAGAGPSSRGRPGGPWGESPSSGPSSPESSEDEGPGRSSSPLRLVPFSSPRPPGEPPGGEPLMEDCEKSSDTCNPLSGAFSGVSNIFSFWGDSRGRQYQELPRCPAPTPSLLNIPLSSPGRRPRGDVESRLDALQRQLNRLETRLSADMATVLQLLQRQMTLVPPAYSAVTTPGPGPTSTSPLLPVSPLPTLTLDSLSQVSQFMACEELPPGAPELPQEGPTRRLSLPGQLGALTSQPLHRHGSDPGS
row,SMILES,"hERG current change (%, negative = inhibition) at 1uM [%]"
1,Cl.O=C(CN1C2=NCCCN2c2ccccc21)c1ccc(Cl)cc1Cl,-82.1
2,COc1cc(OC)cc(C(=O)NCCCCNC(=O)c2cc(OC)cc(OC)c2)c1,7.39
3,COc1cc(/C=C/c2nc3ccccc3s2)cc(OC)c1O,5.74
4,NC(=O)C(Cc1ccccc1)NC(=O)C12CC3CC(CC(C3)C1)C2 (stereo not shown),9.92
5,Cc1ccc(C(=O)N/C(=C/c2ccccc2)C(=O)NCC2CCCO2)cc1 (stereo not shown),-6.64
6,COc1ccc(NC(=O)/C(=C\c2cccs2)NC(=O)c2ccco2)cc1,3.21
7,CC1=CC(=C(C#N)C#N)C=C(C)N1CCC(C)C,2.09
8,CC(=O)CCc1c[nH]c2c(C(=O)O)cccc12,8.57
9,C/C(=N\OCC(=O)Nc1ccc2c(c1)OCCO2)c1ccc2c(c1)OCCO2,-1.22
10,Cc1cccc(N2CCN(C(=O)c3cccc(N4CCCC4=O)c3)CC2)c1C,9.67
11,CN(C)C(=O)C1CC(=O)OC12CCCCC2 (stereo not shown),10
12,Cc1nc(NCCc2ccccc2F)c(C#N)c(C)c1[N+](=O)[O-],13.1
13,COc1ccc(NC(=O)c2oc3ccc(S(=O)(=O)N4CCOCC4)cc3c2C)cc1,3.1
14,CN(C)S(=O)(=O)N1CCN(c2ccccc2)CC1,-0.132
15,Oc1c(Br)cc(C=Nc2ccc3nc(-c4ccccc4)[nH]c3c2)c(O)c1Br,9.27
16,Nc1ncc(-c2ccccc2)c(-c2ccc(O)cc2O)n1,-4.1
17,CCN(C(=O)/C=C/c1ccc(OC)cc1)C1CCCCC1,11.4
18,Cc1ccc(-c2csc(N(CCCN(C)C)C(=O)c3ccco3)n2)cc1.Cl,-36.6
19,Cc1[nH]c2ccc(F)cc2c1CCN(Cc1cccnc1)C(=S)Nc1ccc(F)cc1,6.75
20,CC(C)=CCC/C(C)=C/COc1ccc2ccc(=O)oc2c1,-3.75

row,SMILES,"hERG current change (%, negative = inhibition) at 1uM [%]"
1,S=C(NCCc1ccccc1)N/N=C/c1ccc(Cl)cc1,18.5
2,COCCCNC(=O)c1ccc(CNS(=O)(=O)c2ccc(NC(C)=O)cc2)cc1,10.5
3,Cc1c(C(=O)N/N=C/c2ccccn2)nnn1-c1nonc1N,6.85
4,CCOC(=O)Cc1csc(NC(=O)c2cc(=O)c3ccccc3o2)n1,5.21
5,Cc1ccc(S(=O)(=O)NC(Cc2ccccc2)C(=O)NN)cc1 (stereo not shown),13.6
6,Cc1ccc2c(c1)C1CN(C)CCC1N2C(=O)COc1ccc(N(C)C(=O)c2ccccc2)cc1 (stereo not shown),4.6
7,CCSc1nc2c(c(=O)[nH]1)C(c1ccncc1)C(C(=O)OC)=C(C)N2 (stereo not shown),6.7
8,COC(=O)c1c(N2C(=O)CCC2=O)sc2c1CCCC2,7.34
9,Cn1ncc([N+](=O)[O-])c1C(=O)N/N=C/c1cccc([N+](=O)[O-])c1,15.4
10,COc1cc(Cl)cc(NC(=O)CCN2CCN(C)CC2)c1,-20.8
11,COc1ccc(/C=C/C2=NN(Cc3ccccc3)C(=O)CC2)cc1,3.98
12,Cc1cc(Nc2ccccc2C(=O)O)n(-c2cccc(Cl)c2)n1,10.5
13,CC1=C(C(=O)Nc2ccccc2)C(c2ccccc2)N2C(=O)CSC2=N1 (stereo not shown),3.28
14,CCOc1ccc(Br)cc1S(=O)(=O)N1CCC(C(N)=O)CC1,10.5
15,Cc1cc(NS(=O)(=O)c2ccc(NC(=O)COc3ccccc3C(C)(C)C)cc2)no1,17.5
16,Cc1ccc(C2(C)NC(=O)N(CC(=O)Nc3ccccc3C(=O)N3CCCCC3)C2=O)cc1 (stereo not shown),7.18
17,CC1CCCC1/C(=N/O)c1ccccc1 (stereo not shown),6.65
18,Cc1ccccc1NC(=O)c1ccc2snnc2c1,1.6
19,COc1c(F)c(F)c(C(=O)O)c(Nc2ccc(C)cc2C)c1F,9.99
20,COc1cc2nc(C3CCC3)n(NC(=O)C3CCCC(OC)C3)c(=O)c2cc1OC (stereo not shown),2.13

row,SMILES,"hERG current change (%, negative = inhibition) at 1uM [%]"
1,O=C(Nc1ccc(N2CCOCC2)cc1N1CCOCC1)c1ncoc1-c1cccc(F)c1,7.93
2,COCCNC(=O)c1ccc2c(=O)n(CCOC)c(=O)[nH]c2c1,11.4
3,COC(=O)Cc1ccc(NC(=S)Nc2ccc(N3CCOCC3)cc2)cc1,-0.428
4,CCn1c(SCc2ccccc2Cl)nc2ccccc21,6.94
5,Cn1c(N2CCOCC2)c(C=O)c2ccccc21,6.08
6,COCCNc1ncnc2c1cnn2Cc1ccccc1Cl,6.61
7,CCN(CC)S(=O)(=O)c1ccc(C)c(NC(=S)N2CCN(Cc3ccc4c(c3)OCO4)CC2)c1,8.56
8,COC(=O)c1cccc(NC(=O)CCN2C(=O)C3CC=CCC3C2=O)c1 (stereo not shown),4.43
9,CC(C)n1c(=O)c(C=Nc2ccc(Cl)cc2)c(O)n(Cc2ccco2)c1=O,8.62
10,COC(=O)c1ccc(CNC(=O)COC(=O)c2ccc(N(C)C)cc2)cc1,18.1
11,CSc1nc(C)c(C(=O)Nc2ccccc2)c(C)c1C#N,14.7
12,O=C(COC(=O)/C=C/c1cccs1)NC1CCCCC1,7.77
13,Cc1cc(C(=O)Nc2ccccn2)cs1,-1.26
14,Cc1cc(C(=O)CSc2n[nH]c(-c3ccccc3F)n2)c(C)n1Cc1cccs1,11.6
15,CC(=O)OC1(c2ccccc2)CCN(C)C(C)C1C.Cl (stereo not shown),5.62
16,CCCn1c(-c2cc(OC)c(OC)c(OC)c2)nc2nc3ccccc3nc21,-7.87
17,CCOC(=O)c1c(C)oc2c(CN3CCN(C)CC3)c(Br)c(OC)c(O)c12.Cl,-4.01
18,C/C(=N\NC(=O)c1ccc(Br)cc1)c1cccnc1,15
